Measured values published in US20230365642A1 (MEDICENNA THERAPEUTICS, published 2023).

Assays:
[1] = molecular target: T1, IL13Rα2 Protein, Human, Recombinant, His Tag (human, UniProt Q14627 27-343); assay: SPR (Biacore T200), construct captured by its Fc, receptor flown over, multi cycle kinetics
T1 construct: also called human IL13Rα2; IL13Ra2; not shown: His tag
T1 sequence (looked up): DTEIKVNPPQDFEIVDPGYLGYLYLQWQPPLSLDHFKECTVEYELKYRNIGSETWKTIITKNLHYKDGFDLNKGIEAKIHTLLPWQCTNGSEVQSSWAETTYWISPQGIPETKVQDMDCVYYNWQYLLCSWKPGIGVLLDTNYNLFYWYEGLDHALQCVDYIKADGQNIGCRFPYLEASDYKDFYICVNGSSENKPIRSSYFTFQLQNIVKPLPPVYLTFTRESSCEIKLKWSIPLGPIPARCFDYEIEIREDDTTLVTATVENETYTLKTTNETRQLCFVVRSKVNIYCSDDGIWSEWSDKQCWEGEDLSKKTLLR

[2] = molecular target: T2, IL4R Type-II (IL4Rα chain with IL13Rα1), on cells (UniProt P24394 26-825; P78552 22-427, limits assumed); assay: cell-based or functional assay
T2 sequence (looked up) 1: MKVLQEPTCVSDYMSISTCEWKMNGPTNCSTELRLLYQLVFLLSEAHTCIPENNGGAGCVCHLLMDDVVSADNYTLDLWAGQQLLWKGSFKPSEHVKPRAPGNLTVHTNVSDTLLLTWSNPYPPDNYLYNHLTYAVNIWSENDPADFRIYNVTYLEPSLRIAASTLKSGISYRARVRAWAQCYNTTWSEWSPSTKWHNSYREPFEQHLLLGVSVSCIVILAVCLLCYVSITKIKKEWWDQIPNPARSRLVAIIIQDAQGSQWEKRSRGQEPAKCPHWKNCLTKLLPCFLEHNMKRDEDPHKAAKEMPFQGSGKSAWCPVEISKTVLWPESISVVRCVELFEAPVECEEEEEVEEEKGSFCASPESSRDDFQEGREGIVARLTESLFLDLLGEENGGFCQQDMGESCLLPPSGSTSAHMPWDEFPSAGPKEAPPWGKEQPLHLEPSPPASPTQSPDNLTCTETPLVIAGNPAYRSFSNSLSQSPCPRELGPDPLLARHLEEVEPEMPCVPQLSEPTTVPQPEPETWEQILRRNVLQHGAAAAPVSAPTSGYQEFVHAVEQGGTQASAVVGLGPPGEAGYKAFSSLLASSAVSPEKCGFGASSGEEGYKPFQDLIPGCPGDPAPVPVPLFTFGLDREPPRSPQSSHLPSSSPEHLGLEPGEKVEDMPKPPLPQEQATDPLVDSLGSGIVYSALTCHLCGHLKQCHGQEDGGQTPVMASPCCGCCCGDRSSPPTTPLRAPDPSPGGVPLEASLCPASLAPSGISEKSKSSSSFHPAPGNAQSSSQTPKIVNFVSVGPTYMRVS
T2 sequence (looked up) 2: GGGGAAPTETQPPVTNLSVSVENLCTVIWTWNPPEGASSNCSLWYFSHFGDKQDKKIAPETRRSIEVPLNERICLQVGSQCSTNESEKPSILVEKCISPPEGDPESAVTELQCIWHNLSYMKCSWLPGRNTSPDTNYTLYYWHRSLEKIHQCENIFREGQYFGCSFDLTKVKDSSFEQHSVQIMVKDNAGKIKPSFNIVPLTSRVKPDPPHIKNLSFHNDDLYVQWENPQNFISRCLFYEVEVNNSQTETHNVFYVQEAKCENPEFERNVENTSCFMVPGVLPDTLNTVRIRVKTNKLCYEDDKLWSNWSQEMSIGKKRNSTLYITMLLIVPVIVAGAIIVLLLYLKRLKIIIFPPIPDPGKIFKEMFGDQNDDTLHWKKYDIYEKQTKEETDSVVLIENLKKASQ

[3] = molecular target: T3, high affinity IL-2 receptor (IL-2R) consisting of CD122, CD132 and CD25, on CTLL-2 cells (mouse, UniProt P01590 22-268; P16297 27-539; P34902 23-369); assay: cell-based or functional assay
T3 sequence (looked up) 1: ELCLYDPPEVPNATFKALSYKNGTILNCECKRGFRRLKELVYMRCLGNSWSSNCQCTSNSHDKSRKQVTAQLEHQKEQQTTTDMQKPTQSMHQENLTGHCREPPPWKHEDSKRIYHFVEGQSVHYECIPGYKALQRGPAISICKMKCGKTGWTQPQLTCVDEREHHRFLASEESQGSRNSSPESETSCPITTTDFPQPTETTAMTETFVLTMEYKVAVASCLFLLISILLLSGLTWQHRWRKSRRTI
T3 sequence (looked up) 2: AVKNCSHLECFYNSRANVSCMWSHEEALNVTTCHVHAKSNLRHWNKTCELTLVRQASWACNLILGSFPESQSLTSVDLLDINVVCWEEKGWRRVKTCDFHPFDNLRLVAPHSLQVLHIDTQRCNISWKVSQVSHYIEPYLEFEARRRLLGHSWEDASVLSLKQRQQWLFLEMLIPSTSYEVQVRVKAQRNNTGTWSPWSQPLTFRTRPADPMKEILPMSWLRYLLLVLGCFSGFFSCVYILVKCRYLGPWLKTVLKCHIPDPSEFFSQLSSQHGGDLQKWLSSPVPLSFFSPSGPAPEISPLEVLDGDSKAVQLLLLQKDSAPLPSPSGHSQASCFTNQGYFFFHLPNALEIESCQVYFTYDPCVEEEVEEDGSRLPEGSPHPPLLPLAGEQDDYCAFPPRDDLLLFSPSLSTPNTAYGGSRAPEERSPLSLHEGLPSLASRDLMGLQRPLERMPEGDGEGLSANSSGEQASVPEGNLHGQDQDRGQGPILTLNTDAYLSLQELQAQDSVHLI
T3 sequence (looked up) 3: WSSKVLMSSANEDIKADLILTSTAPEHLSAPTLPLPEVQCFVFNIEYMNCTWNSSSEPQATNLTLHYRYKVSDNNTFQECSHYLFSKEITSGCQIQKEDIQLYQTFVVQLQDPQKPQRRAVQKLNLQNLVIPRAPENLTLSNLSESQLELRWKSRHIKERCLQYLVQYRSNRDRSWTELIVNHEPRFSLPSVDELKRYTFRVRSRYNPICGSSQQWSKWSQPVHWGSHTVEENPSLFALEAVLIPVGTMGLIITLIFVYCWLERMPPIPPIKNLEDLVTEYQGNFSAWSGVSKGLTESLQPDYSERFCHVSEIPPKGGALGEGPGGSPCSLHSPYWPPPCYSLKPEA

[4] = molecular target: T4, IL4Rα Protein, Mouse, Recombinant (ECD, His Tag) (aa 1-233, ECD) (mouse, UniProt P16382 26-233); assay: ELISA, receptor coated on plate, anti-human IgG Fc detection
T4 construct: extracellular domain; The stated range 1-233 includes the signal peptide of the expression construct; also called mouse IL4R; mouse IL4Rα; not shown: His tag
T4 sequence (looked up): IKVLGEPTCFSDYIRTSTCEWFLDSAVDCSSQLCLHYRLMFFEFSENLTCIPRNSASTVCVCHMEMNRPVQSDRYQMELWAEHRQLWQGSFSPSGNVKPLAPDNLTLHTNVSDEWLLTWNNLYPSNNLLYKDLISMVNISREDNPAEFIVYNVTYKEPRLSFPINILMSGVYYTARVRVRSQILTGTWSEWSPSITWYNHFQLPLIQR

[5] = molecular target: T5, IL13Rα2 Protein, Mouse, Recombinant, His Tag (mouse, UniProt O88786 22-334, limits assumed); assay: as above
T5 construct: also called mouse IL13Rα2; mIL13Rα2; not shown: His tag
T5 sequence (looked up): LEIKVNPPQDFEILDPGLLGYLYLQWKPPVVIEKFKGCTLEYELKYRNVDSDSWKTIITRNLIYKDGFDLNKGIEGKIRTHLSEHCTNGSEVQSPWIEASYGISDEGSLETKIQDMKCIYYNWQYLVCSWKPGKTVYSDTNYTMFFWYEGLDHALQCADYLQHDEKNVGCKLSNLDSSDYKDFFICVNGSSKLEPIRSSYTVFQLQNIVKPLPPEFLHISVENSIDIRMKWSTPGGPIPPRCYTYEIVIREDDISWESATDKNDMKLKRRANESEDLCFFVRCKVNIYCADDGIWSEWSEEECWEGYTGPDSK

[6] = molecular target: T6, IL13Rα Protein, Human, Recombinant, His Tag (human IL13Rα1) (human, UniProt P78552 22-343, limits assumed); assay: SPR (Biacore T200), construct captured by its Fc, receptor flown over, multi cycle kinetics
T6 construct: also called hIL13Rα1; IL13Ra1; not shown: His tag
T6 sequence (looked up): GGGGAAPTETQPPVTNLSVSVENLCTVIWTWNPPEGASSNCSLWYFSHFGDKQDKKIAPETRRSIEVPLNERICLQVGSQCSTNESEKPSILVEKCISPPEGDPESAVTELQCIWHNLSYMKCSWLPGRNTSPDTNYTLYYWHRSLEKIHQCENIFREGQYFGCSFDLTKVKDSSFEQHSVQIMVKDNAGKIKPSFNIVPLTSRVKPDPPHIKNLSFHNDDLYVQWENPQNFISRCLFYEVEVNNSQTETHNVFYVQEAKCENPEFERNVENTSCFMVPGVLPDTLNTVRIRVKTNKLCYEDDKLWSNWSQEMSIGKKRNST

- Kd [1]: 9.73 nM
B1: Fc-MDNA413 (1:2) (Fc fusion)
chain: [human IgG1 Fc with changes not listed]GGGSGGGGSGGGGSPGPVPPSTAVRALIEELINITQNQKAPLCNGSMVWSINRTAGMYCAALESLINVSGCSAIEKTQDMLSGFCPHKVSAGQFSSLHVRSSKIEVAQFVKDLLFHLRTLFREGQFN

- IL 13 EC50 (nM); IL-13 competitive assay, HEK-Blue IL-4/IL-13 reporter cells [2]: 1120 nM
- CTTL-2 Assay, EC50 (pM) [3]: 20900 pM
B2: H4FEAA-Fc-MDNA413^L39/Q111 (2:1:2) (Fc fusion)
chain: APTSSSTKKTQLQLEHLLLDLQMILNGINNYKNPKLTRMLTAKFYMPKKATELKHLQCLEEALKPLEEVLNLASSKNFHFTPRDVVSNINVFVLELKGSETTFMCEYADETATIVEFLNRWITFSQSIISTLTGGGGSGGGGSGGGGS[human IgG1 Fc with changes not listed]GGGSGGGGSGGGGSPGPVPPSTAVRALIEELINITQNQKAPLCNGSMVWSINLTAGMYCAALESLINVSGCSAIEKTQDMLSGFCPHKVSAGQFSSLHVRSSKIEVAQFVKDLLFHLRTLFREGQFN

- binding result [4]: no binding
- binding result [5]: binds
- Kd [6]: 68 nM
- Kd [1]: 0.144 nM
B3: Human recombinant Fc-IL13 (Control) (Fc fusion)
chain: not shown
notes: also called Fc-hIL13; Fc-WT IL13; not shown: Fc tag of the bought protein (Sino Biological 10369-H01H)

- IL4 EC50 (nM); IL-4 competitive assay, HEK-Blue IL-4/IL-13 reporter cells [2]: 326 nM
- IL 13 EC50 (nM); IL-13 competitive assay, HEK-Blue IL-4/IL-13 reporter cells [2]: 601 nM
B4: MDNA413^L39/Q111-Fc-MDNA413^L39/Q111 (2:1:2) (Fc fusion)
chain: PGPVPPSTAVRALIEELINITQNQKAPLCNGSMVWSINLTAGMYCAALESLINVSGCSAIEKTQDMLSGFCPHKVSAGQFSSLHVRSSKIEVAQFVKDLLFHLRTLFREGQFNGGGGSGGGGSGGGGS[human IgG1 Fc with changes not listed]GGGSGGGGSGGGGSPGPVPPSTAVRALIEELINITQNQKAPLCNGSMVWSINLTAGMYCAALESLINVSGCSAIEKTQDMLSGFCPHKVSAGQFSSLHVRSSKIEVAQFVKDLLFHLRTLFREGQFN

One block for each binder: values may come before it.
